{"source": "the supplement of paper PMC3334620", "note": "The full ranking holds about 33,000 sequences; the median of “E-score (-0.5 to 0.5)” is about -0.017, and the highest 2% start at about 0.3. Some of the results follow."}
{"target": "T1, Sut1 (UniProt P53032)", "T1 sequence": "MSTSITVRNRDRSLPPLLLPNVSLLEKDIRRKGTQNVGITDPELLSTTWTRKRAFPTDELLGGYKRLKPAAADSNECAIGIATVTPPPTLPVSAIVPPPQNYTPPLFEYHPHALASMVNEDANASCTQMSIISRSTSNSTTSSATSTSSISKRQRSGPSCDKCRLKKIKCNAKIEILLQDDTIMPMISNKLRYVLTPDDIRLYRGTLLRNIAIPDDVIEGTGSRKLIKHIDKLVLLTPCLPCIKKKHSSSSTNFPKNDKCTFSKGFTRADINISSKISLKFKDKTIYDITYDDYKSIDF", "experiment": "PBM E-score (8-mer binding enrichment) (E-score (-0.5 to 0.5)); higher = stronger / more preferred TF binding; most listed sequences are background and not binding sites", "conditions": "protein concentration: 200 nM; construct: GST-full length", "outline": "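Each ungapped eight-base word and its reverse complement, pooled, received an E-score from the Universal PBM Analysis Suite. Underlying scans, normalised with masliner, recorded fluorescent anti-GST bound to GST-tagged yeast transcription factors. These were applied at about 100-200 nM to universal all-10-mer Agilent arrays double-stranded by primer extension.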"}
{"sequence": "CGTTTGGC", "PBM E-score": 0.0466}
{"sequence": "CACGTAGA", "PBM E-score": -0.054}
{"sequence": "ATGGCCGC", "PBM E-score": -0.139}
{"sequence": "AGGTTGTG", "PBM E-score": -0.0247}
{"sequence": "CACATTTA", "PBM E-score": 0.152}
{"sequence": "CAGAAAGA", "PBM E-score": 0.102}
{"sequence": "CCGGGTCA", "PBM E-score": -0.0212}
{"sequence": "TGAAATCA", "PBM E-score": 0.123}
{"sequence": "CCTACCAG", "PBM E-score": -0.282}
{"sequence": "GCATACTA", "PBM E-score": -0.0622}
{"sequence": "CCTAGCTA", "PBM E-score": -0.269}
{"sequence": "CCTGGGCG", "PBM E-score": -0.293}
{"sequence": "GGAGCTCC", "PBM E-score": 0.221}
{"sequence": "AACAAGGA", "PBM E-score": -0.0508}
{"sequence": "CGAGTGCC", "PBM E-score": -0.234}
{"sequence": "ATTTATCG", "PBM E-score": 0.191}
{"sequence": "GAGTTTGA", "PBM E-score": 0.148}
{"sequence": "ACCGTTAA", "PBM E-score": 0.0212}
{"sequence": "CATATACG", "PBM E-score": 0.116}
{"sequence": "ACCTGGCC", "PBM E-score": -0.119}
{"sequence": "ACGGAAAC", "PBM E-score": 0.0512}
{"sequence": "CGTTCATA", "PBM E-score": 0.137}
{"sequence": "CAACCTGA", "PBM E-score": -0.121}
{"sequence": "CATGCCGC", "PBM E-score": 0.0558}
{"sequence": "CACGATAA", "PBM E-score": 0.25}
{"sequence": "ACATCTTC", "PBM E-score": 0.0267}
{"sequence": "AAGAGGCT", "PBM E-score": -0.196}
{"sequence": "GGTCGGCA", "PBM E-score": -0.187}
{"sequence": "TCCCTAGA", "PBM E-score": -0.00999}
{"sequence": "GATCGCGC", "PBM E-score": -0.224}
{"sequence": "TAGTGGCA", "PBM E-score": -0.177}
{"sequence": "AAAGGCAG", "PBM E-score": 0.047}
{"sequence": "TCAACGGA", "PBM E-score": 0.246}
{"sequence": "CAACGATC", "PBM E-score": 0.0206}
{"sequence": "ATAGAACG", "PBM E-score": 0.0867}
{"sequence": "TACGCAAA", "PBM E-score": -0.125}
{"sequence": "ATCATCGA", "PBM E-score": 0.14}
{"sequence": "AGTCGAGA", "PBM E-score": 0.113}
{"sequence": "AATTAGAC", "PBM E-score": 0.151}
{"sequence": "ATCCGGCA", "PBM E-score": -0.166}
{"sequence": "ATTGGTCA", "PBM E-score": -0.216}
{"sequence": "AGGAGCGA", "PBM E-score": -0.00713}
{"sequence": "ATGACTAG", "PBM E-score": 0.0157}
{"sequence": "AGGGACCG", "PBM E-score": -0.139}
{"sequence": "AGATATCG", "PBM E-score": 0.0331}
{"sequence": "AGTAGTAA", "PBM E-score": 0.164}
{"sequence": "CGACGGGA", "PBM E-score": 0.0318}
{"sequence": "CTCTTGAA", "PBM E-score": -0.025}
{"sequence": "CACTGTGA", "PBM E-score": -0.119}
{"sequence": "AGCTGATC", "PBM E-score": -0.0638}
{"sequence": "GCGATTCA", "PBM E-score": -0.137}
{"sequence": "CTCTCGAC", "PBM E-score": -0.152}
{"sequence": "GCCCTCTA", "PBM E-score": -0.223}
{"sequence": "AGCATAAT", "PBM E-score": 0.206}
{"sequence": "ACGCTCAG", "PBM E-score": -0.155}
{"sequence": "GCAGGGCA", "PBM E-score": -0.0948}
{"sequence": "CAGTTACA", "PBM E-score": 0.0716}
{"sequence": "AAAACATG", "PBM E-score": 0.064}
{"sequence": "CACATCCG", "PBM E-score": 0.0923}
{"sequence": "GAATCCCC", "PBM E-score": -0.175}
{"sequence": "GCAAGAGC", "PBM E-score": -0.144}
{"sequence": "CGATGACG", "PBM E-score": -0.18}
{"sequence": "ACTCAGTC", "PBM E-score": -0.0209}
{"sequence": "GCCAGTCA", "PBM E-score": -0.182}
{"sequence": "CGGTACAG", "PBM E-score": -0.0311}
{"sequence": "CCGATCTC", "PBM E-score": 0.0158}
{"sequence": "AGTGAATC", "PBM E-score": 0.0271}
{"sequence": "CGGTTAAG", "PBM E-score": 0.117}
{"sequence": "AAGGACCT", "PBM E-score": -0.0841}
{"sequence": "AGGTTCAC", "PBM E-score": -0.154}
{"sequence": "AGCGAGCT", "PBM E-score": 0.0152}
{"sequence": "CGCGTGAG", "PBM E-score": 0.0649}
{"sequence": "AAACTACT", "PBM E-score": 0.199}
{"sequence": "GACCGGTA", "PBM E-score": -0.182}
{"sequence": "GCTAGTAA", "PBM E-score": 0.0423}
{"sequence": "ACTCCAGG", "PBM E-score": 0.00411}
{"sequence": "GAGTTCGC", "PBM E-score": 0.0136}
{"sequence": "AGTGTATA", "PBM E-score": -0.0309}
{"sequence": "CAATCTAA", "PBM E-score": 0.0494}
{"sequence": "AACGGAGA", "PBM E-score": 0.359}
{"sequence": "ATATCGCG", "PBM E-score": 0.0948}
{"sequence": "CGTTGATC", "PBM E-score": -0.0712}
{"sequence": "GAGGAGCC", "PBM E-score": -0.0488}
{"sequence": "CCTAGCCC", "PBM E-score": -0.128}
{"sequence": "AAAGATGT", "PBM E-score": 0.047}
{"sequence": "CACAGGCA", "PBM E-score": -0.147}
{"sequence": "ACTGTGGC", "PBM E-score": -0.348}
{"sequence": "ACGCGTGA", "PBM E-score": 0.00536}
{"sequence": "GGCAGTCA", "PBM E-score": -0.04}
{"sequence": "CAAGGCTG", "PBM E-score": -0.151}
{"sequence": "CATTCACC", "PBM E-score": 0.0184}
{"sequence": "CGTGCGTC", "PBM E-score": 0.0632}
{"sequence": "CCTAAAAG", "PBM E-score": -0.243}
{"sequence": "CAGGAAAG", "PBM E-score": -0.137}
{"sequence": "GGTAACTA", "PBM E-score": 0.122}
{"sequence": "CGGCCGGC", "PBM E-score": -0.11}
{"sequence": "AACGTACA", "PBM E-score": 0.0151}
{"sequence": "CTCCACTC", "PBM E-score": -0.144}
{"sequence": "CGCCTTAG", "PBM E-score": -0.176}
{"sequence": "CACAGGGA", "PBM E-score": -0.237}
{"sequence": "CGTTCGGA", "PBM E-score": 0.385}
{"sequence": "CAGAAACC", "PBM E-score": 0.00134}
{"sequence": "AACGCCCA", "PBM E-score": -0.0199}
{"sequence": "AGCTGTCA", "PBM E-score": 0.00752}
{"sequence": "AACGGCTC", "PBM E-score": 0.18}
{"sequence": "CAACGTGC", "PBM E-score": -0.132}
{"sequence": "AGCACCAT", "PBM E-score": -0.315}
{"sequence": "CTCCGTCC", "PBM E-score": 0.307}
{"sequence": "ATATAGCG", "PBM E-score": -0.00599}
{"sequence": "AGGTAAAC", "PBM E-score": 0.209}
{"sequence": "AGCTCTAT", "PBM E-score": 0.0252}
{"sequence": "CATATCCG", "PBM E-score": 0.102}
{"sequence": "GAATCCAC", "PBM E-score": 0.0244}
{"sequence": "CGTGCAAG", "PBM E-score": 0.0139}
{"sequence": "AGCACCCG", "PBM E-score": -0.169}
{"sequence": "GCGGCTCC", "PBM E-score": -0.0849}
{"sequence": "CGCTTAGC", "PBM E-score": -0.004}
{"sequence": "ACGAATAT", "PBM E-score": 0.195}
{"sequence": "CCGTGGCA", "PBM E-score": 0.0302}
{"sequence": "CTTAATTC", "PBM E-score": 0.161}
{"sequence": "GGATCACC", "PBM E-score": -0.0362}
{"sequence": "GACAGCGA", "PBM E-score": 0.0726}
{"sequence": "GGAATCCC", "PBM E-score": -0.0983}
{"sequence": "ACCTATTG", "PBM E-score": 0.0851}
{"sequence": "GTACGACA", "PBM E-score": -0.0144}
{"sequence": "ATCACCCA", "PBM E-score": -0.012}
{"sequence": "GGTTATTA", "PBM E-score": 0.141}
{"sequence": "ACGCATTC", "PBM E-score": 0.0238}
{"sequence": "CACAGATA", "PBM E-score": -0.182}
{"sequence": "CAGTCTGC", "PBM E-score": -0.194}
{"sequence": "GGGGCTTA", "PBM E-score": -0.287}
{"sequence": "AGGGACAC", "PBM E-score": 0.0534}
{"sequence": "ACTTCACG", "PBM E-score": -0.152}
{"sequence": "ACTTTAGA", "PBM E-score": 0.178}
{"sequence": "AGCGACGC", "PBM E-score": -0.123}
{"sequence": "AAACACCG", "PBM E-score": 0.201}
{"sequence": "ACGATAGC", "PBM E-score": -0.122}
{"sequence": "GTGCGGAA", "PBM E-score": 0.0942}
{"sequence": "GATTCAAC", "PBM E-score": 0.132}
{"sequence": "ATGACCAC", "PBM E-score": -0.135}
{"sequence": "GGACCATA", "PBM E-score": -0.0784}
{"sequence": "AATTCCGC", "PBM E-score": 0.192}
{"sequence": "AAAAGCAT", "PBM E-score": 0.149}
{"sequence": "ACTACTGG", "PBM E-score": -0.146}
{"sequence": "ATCGAGGG", "PBM E-score": -0.1}
{"sequence": "CGCAACCC", "PBM E-score": 0.023}
{"sequence": "CTGTCAGC", "PBM E-score": -0.0355}
{"sequence": "GCCAGTAC", "PBM E-score": -0.107}
{"sequence": "CTTAAACA", "PBM E-score": 0.171}
{"sequence": "CTAGGGGC", "PBM E-score": -0.309}
{"sequence": "CTAGACTA", "PBM E-score": -0.00238}
{"sequence": "GACTGGAC", "PBM E-score": -0.212}
{"sequence": "GAGGTAGA", "PBM E-score": -0.165}
{"sequence": "ATGCCGCG", "PBM E-score": -0.00984}
{"sequence": "CTTTAGTC", "PBM E-score": 0.11}
{"sequence": "CGAATGCC", "PBM E-score": -0.147}
{"sequence": "CCTCATCG", "PBM E-score": -0.156}
{"sequence": "AATGCACA", "PBM E-score": 0.108}
{"sequence": "CATCGGAA", "PBM E-score": 0.269}
{"sequence": "AGCTAATA", "PBM E-score": -0.0778}
{"sequence": "ATAACCGC", "PBM E-score": -0.00795}
{"sequence": "ATCAGGCG", "PBM E-score": -0.068}
{"sequence": "AACCCTTG", "PBM E-score": -0.175}
{"sequence": "CGTTTAGC", "PBM E-score": 0.0573}
{"sequence": "ATTAGCGG", "PBM E-score": -0.0289}
{"sequence": "AAATTGAG", "PBM E-score": 0.174}
{"sequence": "GTGGAAAC", "PBM E-score": 0.132}
{"sequence": "ACAGGTCT", "PBM E-score": -0.109}
{"sequence": "CATAAACA", "PBM E-score": 0.23}
{"sequence": "CTAGGTTA", "PBM E-score": 0.165}
{"sequence": "GAGTACAC", "PBM E-score": -0.149}
{"sequence": "AAGTGGTG", "PBM E-score": -0.0118}
